Paper PMC4336329 (PLoS ONE, 2015)
Among all 310,000 compounds or so, about 2,200 (0.71%) showed an effect of 50% or more. Effects have a minus sign here. Some of the results follow.

Target: human ether-à-go-go-related gene (hERG) potassium channel (human, UniProt Q12809)
Assay: primary screen, population patch clamp on CHO cells stably expressing hERG

Sequence of human ether-à-go-go-related gene (hERG) potassium channel (Q12809 whole entry, looked up): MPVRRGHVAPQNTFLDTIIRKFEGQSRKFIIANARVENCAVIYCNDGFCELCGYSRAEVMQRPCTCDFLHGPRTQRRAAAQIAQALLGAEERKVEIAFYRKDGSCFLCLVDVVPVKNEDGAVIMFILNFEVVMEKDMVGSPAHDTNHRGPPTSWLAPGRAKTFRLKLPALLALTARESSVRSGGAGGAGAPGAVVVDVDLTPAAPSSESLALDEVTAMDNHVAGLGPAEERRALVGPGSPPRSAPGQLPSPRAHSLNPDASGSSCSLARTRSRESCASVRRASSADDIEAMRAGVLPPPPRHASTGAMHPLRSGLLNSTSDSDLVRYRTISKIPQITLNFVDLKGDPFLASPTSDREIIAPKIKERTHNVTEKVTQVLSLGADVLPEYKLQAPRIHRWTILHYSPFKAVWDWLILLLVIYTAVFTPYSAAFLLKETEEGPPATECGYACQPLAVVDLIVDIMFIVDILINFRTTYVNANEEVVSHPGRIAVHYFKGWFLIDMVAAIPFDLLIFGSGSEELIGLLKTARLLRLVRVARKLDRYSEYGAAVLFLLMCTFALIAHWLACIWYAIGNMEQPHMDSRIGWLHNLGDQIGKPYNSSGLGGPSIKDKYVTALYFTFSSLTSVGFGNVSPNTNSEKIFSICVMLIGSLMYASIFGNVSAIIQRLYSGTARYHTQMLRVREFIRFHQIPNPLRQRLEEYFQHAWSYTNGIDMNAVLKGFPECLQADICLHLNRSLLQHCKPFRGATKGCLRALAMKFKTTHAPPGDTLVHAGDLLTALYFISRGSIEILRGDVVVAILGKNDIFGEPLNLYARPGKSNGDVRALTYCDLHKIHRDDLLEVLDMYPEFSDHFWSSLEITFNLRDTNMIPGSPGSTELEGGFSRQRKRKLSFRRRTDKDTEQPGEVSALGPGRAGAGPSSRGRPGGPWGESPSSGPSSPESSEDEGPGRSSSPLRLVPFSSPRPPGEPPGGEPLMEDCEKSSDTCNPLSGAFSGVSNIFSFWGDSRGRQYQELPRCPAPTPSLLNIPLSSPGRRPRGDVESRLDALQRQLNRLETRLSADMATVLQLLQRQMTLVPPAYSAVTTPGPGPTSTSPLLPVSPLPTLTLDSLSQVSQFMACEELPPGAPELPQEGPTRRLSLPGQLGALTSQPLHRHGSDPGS

SMILES | hERG current change (%, negative = inhibition) at 1uM [%]
CCOc1ccccc1Nc1nnc(Cc2ccccc2Cl)c(=O)[nH]1 | -3.04
Cc1occc1-c1nnc(-c2cc([N+](=O)[O-])cc([N+](=O)[O-])c2)o1 | 6.64
CCCCCc1nnc(NS(C)(=O)=O)s1 | 6.56
Cc1ccc(C(=O)N/C(=C/c2ccc(-c3cc(C(F)(F)F)ccc3Cl)o2)C(=O)NCc2cccnc2)cc1 | 9.93
CN(C)/C=C/C(=O)c1cnc(-c2cccc(Cl)c2)s1 | 8.48
CCOC(=O)c1cnc(-n2nc(C)cc2C)nc1NCc1ccc2c(c1)OCO2 | 5.48
C[C@H]1CCCC(=O)CCC/C=C/c2cc(O)cc(O)c2C(=O)O1 | 20.6
Cc1ccc(/C=C2\C(=O)NC(=S)N(c3ccccc3F)C2=O)s1 | 8.19
COc1ccc(CCN=C(N)NS(=O)(=O)c2cc(F)ccc2OC)cc1 | 7.24
CC(C)NC(=S)N1CCC(Cc2ccccc2)CC1 | 9.4
COc1ccc(CN2CCCCC2C(=O)Nc2ccc(OC)c(OCC(C)C)c2)cc1OC (stereo not drawn) | 8.6
CCN(CC(=O)Nc1ccc2c(c1)OCCO2)C(=O)CN1C(=O)NC(C)(c2ccc(C)cc2)C1=O (stereo not drawn) | 6.05
COC(=O)Cn1c(=NC(=O)c2cc(-c3cccs3)nc3ccccc23)sc2cc(S(N)(=O)=O)ccc21 | 8.29
O=C(N/N=C\c1ccc(Br)cc1)c1ccc(Cn2cccn2)o1 | 2.56
CC(=O)c1ccc(S(=O)(=O)N2CCN(c3nc(-c4cccnc4)nc4ccccc34)CC2)cc1 | 1.27
O=C(Cn1nnc2c(cnn2-c2ccccc2)c1=O)N1CCN(c2ccccc2F)CC1 | 14
O=C(NC1(C(F)(F)F)N=C2SCCN2C1=O)c1cccnc1 (stereo not drawn) | 13.3
Cc1ccc(C(=O)NCCN2CCNC2=O)cc1 | 12.1
CCOc1ccc(C(=O)NC(=S)Nc2cccnc2)cc1 | 5.31
Cc1ccccc1CN1CCNC(=O)C1CC(=O)NC1CCCCCCC1 (stereo not drawn) | 7.5
CC12c3ccccc3C(c3ccccc31)C1C(=O)N(Cc3cccnc3)C(=O)[C@H]12 (stereo partly drawn) | 7.4
Cc1cccc(NC(=S)Nc2ccc3cn[nH]c3c2)c1 | 11.4
CNC(=S)N1C2CCC1CC(NC(=O)NC13CC4CC(CC(C4)C1)C3)C2 (stereo not drawn) | 13.5
O=C(Nc1nc(-c2cccnc2)cs1)c1ccc([N+](=O)[O-])cc1 | 8.49
CN(C)c1ccc(C(=O)OCC(=O)N2CCOCC2)cc1 | 2.34
COc1ccccc1Oc1ncnc2c1cnn2-c1ccccc1 | 8.14
O=C(N/N=C1\CCCc2ccccc21)C(O)c1ccccc1 (stereo not drawn) | -4.16

SMILES | hERG current change (%, negative = inhibition) at 1uM [%]
Cc1ccc(CNC(=O)C(OC(=O)c2cccs2)C(C)C)cc1 (stereo not drawn) | 15.7
CCOc1cc(Br)c(/C=C2/C(=O)N(C)C(=S)N2CC(=O)OC)cc1OC | 13.7
CC(=O)c1c(C)[nH]c(C(=O)NCC2CCCCC2)c1C | 13.5
COc1cccc(C2=CC(=O)C[C@H](c3ccc(OC)c(OC)c3)C2)c1 | 1.89
COc1cccc(OC)c1OCC(O)CN1CCN(c2ccccc2F)CC1.Cl (stereo not drawn) | 7.45
COc1cc2c(cc1OC)CN(C(=O)CSc1nc3[nH]ncc3c(=O)n1-c1ccccc1)CC2 | 4.05
CN(Cc1c(C(=O)N/N=C/c2cccc(O)c2)nnn1-c1nonc1N)c1ccccc1 | 12.6
COc1ccc2c(c1)c1ncn(Cc3ccccn3)c(=O)c1n2C | 14.2
Cc1ccc(NC(=O)/C=C/c2cccc(C(F)(F)F)c2)cc1 | 15.8
CN1/C(=C\C(=O)C[n+]2ccc(C(=O)c3ccccc3)cc2)C(C)(C)c2ccccc21.[Cl-] | 8.74
CCOc1ccccc1NC(=O)CSc1nc(=O)n(CCCN2CCOCC2)c2c1CCC2 | 5.41
Cc1nc(N2CCN(c3ccccn3)CC2)c2c(C)c(C(=O)Nc3ccc(Br)cc3C)sc2n1 | 24.1
CCn1c(N2CCN(C(=O)C34CC5CC(CC(C5)C3)C4)CC2)nc2ccccc21 | 11.5
Cc1cccc2cc(CN(CC3CCCO3)C(=O)NC3CCCCC3)c(=O)[nH]c12 (stereo not drawn) | 4.52
CC(C)CCCC(C)NC(=O)c1cc(S(=O)(=O)N2CCCCC2)ccc1N1CCOCC1 (stereo not drawn) | 10.7
COc1ccccc1C(=O)NCCSCc1ccccc1Cl | 8.35
CCn1c(=O)n(CC)c2cc(N3CCCC3)c(NC(=O)c3ccc(C)cc3)cc21 | 15.1
Cc1ccc(C)c(N2N=C(C(=O)N(CC(C)C)c3c(N)n(Cc4ccccc4)c(=O)[nH]c3=O)CCC2=O)c1 | 13.4
COC(=O)CSc1nc2cc(C)ccc2cc1C#N | 21.4
Cc1ccc(C)c(NC(=O)CCC(=O)N/N=C/c2cc([N+](=O)[O-])ccc2O)c1 | 5.84
O=C(O)c1ccc(-n2cccn2)nc1 | 8.72
CCN1C(=O)/C(=C/C=C2/Sc3ccccc3N2CCO)SC1=S | 5.47
CCc1ccc(-c2nn(Cc3ccccc3)cc2/C=C/C(=O)O)cc1 | 9.47
CCN1CCN(C(=O)c2ccccc2NC(=O)c2ccc(Cl)cc2)CC1 | -8.95
COc1cccc(NC(=O)COc2c(F)c(F)c(C(F)(F)F)c(F)c2F)c1 | 2.07
Cc1ccc(NC(=O)N2CCCc3ccccc32)cc1C | 6.47
Cc1cc(C)cc(-n2c(C)cc(/C=N/NC(=O)c3cccc([N+](=O)[O-])c3C)c2C)c1 | 16.9
